Results published in paper PMC12136788.
The list shows a part of the results.

T1: UNK ZnF1-3 (human, UniProt Q9C0B0 31-174)
T1 sequence: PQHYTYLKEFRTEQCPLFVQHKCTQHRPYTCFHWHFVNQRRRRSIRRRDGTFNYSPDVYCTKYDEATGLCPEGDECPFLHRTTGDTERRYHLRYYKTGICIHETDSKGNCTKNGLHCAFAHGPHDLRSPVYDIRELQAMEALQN

B1: 122075633_122075753_1595_3pUTR_ENSMUSG00000038145_ENSMUST00000120173|mouse|control|control (ssRNA)
RNA: GGGAGUUCUACAGUCCGACGAUCGCCCUCCUCGAAGAUCUGGUUGAGCACUGGGGCACUCUUGCGAGACGUCAGGCGAUUGGUGACCGAUGGCUUCCGGCGCAGCACCACCUGCGUGGACAGGGACACAGGCUUCUUGUCCUCCAACAGAGGAUUGAGCAUCA
B2: chr3:10015032:10015033:+_ENSMUSG00000027533_ENSMUST00000029046|mus_mus|mus_mus_mus_hu_True|68_68 (ssRNA)
RNA: GGGAGUUCUACAGUCCGACGAUCGUUUUUACCAUCACAAGUGAUGAUACAAUCUGGCUUGGCCAUUGCAGCCAUCUUUCGCAAAGCUAUUCCCACUCCUAGCUCCUUCAUGUAUUCAUCAAAGCCUUUGCUGUCCACCAGGCGCAACAGAGGAUUGAGCAUCA
B3: chr3:160150142:160150143:+_ENSG00000113810_ENST00000344722|hu_mus|motif|central (ssRNA)
RNA: GGGAGUUCUACAGUCCGACGAUCAAAACCAGCCAUAAAUUCAUUCAGCCUUUGUUUUCGAAGAUCUUCAUAUGCUUGUCGGAAAUUAUCUCUUUCAGAAGUAAUUUUGUCCAGUUCGGCUACUCUUUGCAAAUAUAAAUCUUCCAACAGAGGAUUGAGCAUCA
B4: chr13:115030651:115030652:+_ENSG00000130177_ENST00000356221|hu_mus|FALSE|FALSE (ssRNA)
RNA: GGGAGUUCUACAGUCCGACGAUCGAUGUACAUUUCAAUGCAGUGACCAAGCAUUGUAACAGAAAAUGUGUCGUCUCGCCUGAGACCAAGAGCUGUGUGGAAAUAGUCCACAGCGUUUUCAAAGUUGCCCAUCAGACUGUGGAUCAACAGAGGAUUGAGCAUCA
B5: chr12:32871593:32871594:+_ENSG00000087470_ENST00000452533|hu_hu|motif|central (ssRNA)
RNA: GGGAGUUCUACAGUCCGACGAUCCAAUACAUCCAUGGCAUCAGUACCCGCAUCCAUGAGAUCAAGUUUAGUGAUUACAGCGGGGGUUCUGCGACCAUCUGGAUCUACCUCUCUUGAAAUUUUAAGUGCCUCUGAUGUUGCCAUCAACAGAGGAUUGAGCAUCA
B6: chr12:53618122:53618123:+_ENSMUSG00000035133_ENSMUST00000110725|mus_hu|FALSE|FALSE (ssRNA)
RNA: GGGAGUUCUACAGUCCGACGAUCUCUUGUUCCCUCUAAGUUGAUGUAUUCUUCAUAAUCAGGAUGAUUUUUUAAUUUAUUACUAACAGUUUUCCAAGUUGCAUGAUAAUCUCUCACAGUCUGCACAAGUUUUUCAAACUUAUCCAACAGAGGAUUGAGCAUCA
B7: chr4:140556289:140556290:+_ENSMUSG00000036622_ENSMUST00000037055|mus_mus|mus_mus_mus_hu_False|58_88 (ssRNA)
RNA: GGGAGUUCUACAGUCCGACGAUCGAUGGAGCUCACCAGGCCCCCUUUGGCUGUGCAGAACCCUGUGCGGGUCACCACUGCUAGCACGUGCGGUCCCACAUAGGCCCGGGCCUGCAAGAUGAGGGUCCCGCAGAAGAGUGUGUGCAACAGAGGAUUGAGCAUCA
B8: chr15:96521860:96521861:-_ENSMUSG00000022462_ENSMUST00000023099|mus_hu|motif|central (ssRNA)
RNA: GGGAGUUCUACAGUCCGACGAUCGAAAUCUUUUGAUGCACACAACAAGUGAGUUACAGAACUCCGGAUUGGGAAAAUAACGGCUGGUACUGUCAGGGUCACAGCCAUUAACACAGCCAGACGGACAAUGAGAAGAAGAAUAUCCAACAGAGGAUUGAGCAUCA
B9: chr15:58009597:58009598:+_ENSG00000255529_ENST00000299638|hu_hu|motif|central (ssRNA)
RNA: GGGAGUUCUACAGUCCGACGAUCGUGUCAAGAGGGGACACACAGAGAUUUUGGAGUGCUGGCAAGACCUCCUCUGCAUCGGGUUUGUGAUUACACAGCUGUUGCUUUACCCAUUAAGCUCUGUUUUAAGUACUUAUUUGUAAGCAACAGAGGAUUGAGCAUCA
B10: chr1:163112212:163112213:-_ENSG00000143248_ENST00000313961|hu_hu|hu_hu_hu_mus_False|88_98 (ssRNA)
RNA: GGGAGUUCUACAGUCCGACGAUCUUUUAUUAUCAGUAAGCAUGAGUCACAUAGUACGCAAAGUAUUGGAUACAAUAAUCAGGAAACAAACACUAUUGGUCCAGAAUUUAAAACUUUAUGAGCGAAGUGCUGGCACAGGACUUACAACAGAGGAUUGAGCAUCA
B11: chr7:44244176:44244177:+_ENSG00000106636_ENST00000223369|hu_mus|hu_hu_hu_mus_False|78_98 (ssRNA)
RNA: GGGAGUUCUACAGUCCGACGAUCACUGUCGCUCCGGACGUAGACGUGGCAAAGAUAGUCUUGUUCUUUGACAGAAGCUCUGCUGCCUUUCCCCGAGCGUUCCACAAUCAGUUGACUUGUAAAGGUCAUGAAUUCCUGCACACUCAACAGAGGAUUGAGCAUCA
B12: chr17:60770872:60770873:+_ENSG00000011028_ENST00000303375|hu_hu|hu_hu_hu_mus_True|38_58 (ssRNA)
RNA: GGGAGUUCUACAGUCCGACGAUCUCUUUAAAAAAAAAAAAAAAAAGACAAACAAUAAUAGCACAUUUCGAGAAUCAUCAACUACAGUAGAGGGUCCAUGUCUUCGAUUUGUUCACAUCGUCCUGCACUGGGACACGGGGACUGCAACAGAGGAUUGAGCAUCA
B13: 107048236_107050550_205_CDS_ENSMUSG00000018433_ENSMUST00000018577|mouse|control|control (ssRNA)
RNA: GGGAGUUCUACAGUCCGACGAUCCUUGUAAAGGACGACGGUCCUGCCGCUGUCCGUCACUAGGAACUGGUCGGCUUUGUCAGUCUGCUCUACACCUAGGAAUCCCUCAGGCCCGGCGCCUAAGACUCCAGUAGACAACGUGAACAACAGAGGAUUGAGCAUCA
B14: 44567007_44567127_516_3pUTR_ENSMUSG00000032096_ENSMUST00000034607|mouse|control|control (ssRNA)
RNA: GGGAGUUCUACAGUCCGACGAUCCUGUAAAGGUUCUGAUCUGUGCCAGGUUAACAUUCUCCCGGUAUCCCAGGGCAACAAUUUCAUCAAAAGCAAAAAUCAAAUCAAAACAGUGCUCAGAUAUUUCAUUUUCCUCUAAGGCUCCAACAGAGGAUUGAGCAUCA

molecular target: T1, UNK ZnF1-3; test: nsRBNS (natural sequence RNA bind-n-seq); RBNS binding buffer (assumed for nsRBNS): 25 mM Tris pH 7.5, 150 mM KCl, 3 mM MgCl2, 0.01% Triton X-100, 500 ug/ml BSA, 20 U/ml SUPERase-In, 4 C; UNK is unkempt and MSI1 is Musashi-1; names of the RNAs are library labels; protein concentration not given here; high values mean tight binding

Binder	binding signal
B1	1.21 enrichment R
B2	0.806 enrichment R
B3	0.558 enrichment R
B4	0.955 enrichment R
B5	1.38 enrichment R
B6	0.754 enrichment R
B7	1.67 enrichment R
B8	0.983 enrichment R
B9	1.13 enrichment R
B10	1.51 enrichment R
B11	0.796 enrichment R
B12	2.45 enrichment R
B13	0.615 enrichment R
B14	1.17 enrichment R
